According to PMC4242493:
Some of the results follow. The list includes weakly bound sequences.

Biological target: MaxL homodimer (UniProt P61244)
Experiment: universal protein-binding microarray (PBM)
Settings: PBS-based mixture, 10 nM His-tagged protein dimer, 2% milk, 200 ng/uL BSA, 50 ng/uL salmon testes DNA, 0.02% TX-100; detection with Alexa 488 anti-His …; high values mean tight binding; most listed sequences are background and not binding sites; double strand, one strand shown

UniProt P61244, sequence (P61244 whole entry): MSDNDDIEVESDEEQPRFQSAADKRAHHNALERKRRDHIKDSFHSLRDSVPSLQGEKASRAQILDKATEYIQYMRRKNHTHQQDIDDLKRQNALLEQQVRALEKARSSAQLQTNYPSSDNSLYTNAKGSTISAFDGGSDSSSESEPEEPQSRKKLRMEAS

| Sequence | binding signal (normalized occupancy) |
| --- | --- |
| AAGAGATC | 0.0785 |
| CCACCATA | 0.084 |
| CACGCTGG | 0.113 |
| ACCGGGGA | 0.0723 |
| CCGACTAA | 0.0758 |
| GTCCCTCA | 0.0754 |
| AATGTTAA | 0.0817 |
| AGGTTACG | 0.072 |
| ACCAAGTA | 0.0719 |
| CTCGGCTA | 0.0658 |
| ATGAAAGA | 0.071 |
| AGAGAACC | 0.0865 |
| ACCAGTGA | 0.0765 |
| CCCCCCAA | 0.0777 |
| AGTTGATG | 0.0746 |
| CCGTGATA | 0.0782 |
| CTAAATTA | 0.072 |
| AGAGGCCG | 0.0676 |
| GTCACCAC | 0.0775 |
| ACGCCTGC | 0.0743 |
| GAGCGACA | 0.0823 |
| AAATATCC | 0.0699 |
| ACACCAGG | 0.0735 |
| CGCGAACC | 0.0677 |
| CCTGATTA | 0.075 |

| Sequence | binding signal (normalized occupancy) |
| --- | --- |
| GCGATTGA | 0.0748 |
| GCTTTGCA | 0.072 |
| CACGTTAG | 0.105 |
| CCTGGTAA | 0.073 |
| ATTCGAAA | 0.0738 |
| CCCCTAGA | 0.0806 |
| ATCGCTAC | 0.0736 |
| CCCTTGCA | 0.0735 |
| CCTTTAAA | 0.0745 |
| AATTCGCG | 0.0755 |
| CCGTATAC | 0.0779 |
| CCTTCGAG | 0.0696 |
| ACGGCAAA | 0.0694 |
| ACGAGACT | 0.077 |
| AAGTATTA | 0.0765 |
| GAACTGTA | 0.0745 |
| ATGGTGTC | 0.081 |
| AGCTTACT | 0.0712 |
| CTATGTAC | 0.0847 |
| AAGCCGCC | 0.0707 |
| CGCAGCAC | 0.0736 |
| CTGGTGGC | 0.0753 |
| CCAGTACA | 0.0847 |
| GTAGCGGA | 0.0685 |
| AGCCAGCA | 0.0736 |

| Sequence | binding signal (normalized occupancy) |
| --- | --- |
| ATGTATTA | 0.0821 |
| TACCGATA | 0.0719 |
| GGGTGTAC | 0.0782 |
| ATCAAAAG | 0.075 |
| CGCCTAGA | 0.0698 |
| ACTTCACG | 0.0799 |
| CCTCGTGC | 0.133 |
| AATTCCAC | 0.0752 |
| ACAAGTGC | 0.0781 |
| AGTATCAC | 0.0846 |
| GAACTGCA | 0.072 |
| CCATTTAA | 0.0764 |
| ATCTCTAG | 0.0794 |
| AACGGTAC | 0.0737 |
| AATGGAAC | 0.074 |
| CATCAAAA | 0.0747 |
| CCCATACC | 0.0872 |
| CACCACTC | 0.0771 |
| GGGGGCAC | 0.0775 |
| ATGGAGTA | 0.0779 |
| CCAACGCC | 0.0721 |
| CAGCTACG | 0.0718 |
| AGTCCTGG | 0.0658 |
| CCTTATAG | 0.0824 |
| GAGGTCGA | 0.0722 |

| Sequence | binding signal (normalized occupancy) |
| --- | --- |
| ATCAGCGA | 0.0728 |
| ACGTGAAA | 0.097 |
| CGACCTAG | 0.0686 |
| GAACTACC | 0.0767 |
| GTGAATTA | 0.0765 |
| ACAATAAA | 0.0758 |
| ATGACAAC | 0.0781 |
| ATTTCTCC | 0.0731 |
| CGGTCCGC | 0.0666 |
| CAAAGCGA | 0.066 |
| ATGCTTGA | 0.0776 |
| AACCACAG | 0.0711 |
| ACAAGAAT | 0.0786 |
| CCTTCGCG | 0.069 |
| AGCAAGCC | 0.069 |
| CGAATATC | 0.0786 |
| ACCCCCAA | 0.0804 |
| AAGAGACA | 0.0747 |
| AGGATATG | 0.0799 |
| GTGAAGCA | 0.0832 |
| GTCAACAC | 0.0809 |
| AGGTACCA | 0.0719 |
| ACTAGTGG | 0.0781 |
| CCAGATCC | 0.0709 |
| AACGCAAC | 0.0782 |

| Sequence | binding signal (normalized occupancy) |
| --- | --- |
| GAGCCTAA | 0.0763 |
| CGCGGGGA | 0.077 |
| CTAAATTC | 0.0714 |
| CCCTTTCC | 0.0694 |
| AGCTGAGG | 0.0672 |
| CCTTTGTC | 0.0748 |
| CTGTAAAA | 0.0786 |
| ACCGCGGC | 0.0687 |
| CTACGTGC | 0.0865 |
| AGCTACAG | 0.0749 |
| GCATGTCC | 0.0929 |
| ATCTTTCC | 0.0761 |
| AATATCCT | 0.0771 |
| ACGAATGA | 0.077 |
| CGCACGTA | 0.0881 |
| CTACAAAA | 0.0721 |
| GACCCAGA | 0.0721 |
| CCCGAGGG | 0.0651 |
| AGCTGGAT | 0.0711 |
| AAATCCTA | 0.078 |
| AATCTTAG | 0.0698 |
| CGTCCCTA | 0.0733 |
| ATCTACCG | 0.0739 |
| CTACATTA | 0.0762 |
| CTGCTCGC | 0.0679 |

| Sequence | binding signal (normalized occupancy) |
| --- | --- |
| GCCACTCC | 0.0748 |
| AGCGCGAC | 0.0688 |
| CTGCAGAC | 0.0715 |
| CAGAAAGG | 0.0726 |
| CTTGAAGC | 0.0724 |
| TACCGAGA | 0.0775 |
| CTCGTAGC | 0.0707 |
| ATCTCAGA | 0.0758 |
| ACACTTAA | 0.0826 |
| ACTACCAC | 0.0826 |
| ATGCACAC | 0.0941 |
| AACCCAAT | 0.075 |
| GACCATTA | 0.0775 |
| ATGCGGAC | 0.087 |
| AGCTAATG | 0.0717 |
| ATATCGGA | 0.0799 |
| ACCCCCCC | 0.0963 |
| AGTTCCAT | 0.082 |
| GCACAGAC | 0.0712 |
| CATCGCTC | 0.0683 |
| AGCAACCC | 0.0702 |
| AAAGTGTG | 0.0847 |
| AGCTTGCC | 0.0703 |
| CCGACGAA | 0.0722 |
| GCTACTTA | 0.0777 |

| Sequence | binding signal (normalized occupancy) |
| --- | --- |
| AGCGATAA | 0.0695 |
| GGGCCAGA | 0.071 |
| CCGGCTGC | 0.067 |
| ATGACATG | 0.0993 |
| ATACCATA | 0.0804 |
| AGTTCGAC | 0.0718 |
| GAGTCTCA | 0.0683 |
| ATTGCGAG | 0.0753 |
| GGGTACGA | 0.0719 |
| GGGTTTGA | 0.0728 |
| AGGGTGAA | 0.0714 |
| AATACGCC | 0.0758 |
| CTTTGAGC | 0.067 |
| ACGCGTAT | 0.0868 |
| GTGGTGTA | 0.0801 |
| CGAATGAA | 0.0766 |
| ATCCTGAA | 0.0784 |
| ATTCTAGG | 0.0763 |
| CTTTGAGA | 0.0714 |
| CACTATAA | 0.0847 |
| GGCCACGA | 0.0815 |
| GGATCGAC | 0.0761 |
| ATGGTCGG | 0.0807 |
| CTCTGAAC | 0.0745 |
| ATGCCGCA | 0.0854 |

| Sequence | binding signal (normalized occupancy) |
| --- | --- |
| CCTCACAG | 0.0719 |
| AGATTCGA | 0.0676 |
| CGAGGCTC | 0.0735 |
| AGCGCCAA | 0.0742 |
| ATACACAT | 0.092 |
| GACAGTCC | 0.0686 |
| CACCCGTG | 0.0871 |
| GCAGTTAC | 0.076 |
| TAGAGTAA | 0.0718 |
| CTCCAGGA | 0.0694 |
| CAATAACG | 0.0718 |
| GTGACCGA | 0.0795 |
| CAGGTCAA | 0.0719 |
| CACCTTGA | 0.0815 |
| CCTTATAA | 0.084 |
| CAGAACCG | 0.0713 |
| CGGAGAAA | 0.0676 |
| CCGCAAGG | 0.0711 |
| CTACTGGA | 0.0727 |
| GAGATTGC | 0.0746 |
| ACACCCTC | 0.0791 |
| ACTGACTA | 0.0704 |
| CCACTTCA | 0.0741 |
| AATAGACC | 0.0741 |
| ACCGTCAC | 0.0756 |

| Sequence | binding signal (normalized occupancy) |
| --- | --- |
| TAAAAAGA | 0.0752 |
| CATTCGAA | 0.073 |
| ATTAACCC | 0.0777 |
| AATAAAAG | 0.0762 |
| AATTACTG | 0.0697 |
| AGCACGAC | 0.0782 |
| CTAGTACC | 0.0747 |
| CAAGACGG | 0.0766 |
| ACGGGGGG | 0.0891 |
| ATCAACCC | 0.0811 |
| AGCAATGC | 0.0823 |
| CTTCAATC | 0.0732 |
| TGACTACA | 0.0774 |
| AAGGCAAT | 0.074 |
| AGAACTCT | 0.0685 |
| GACGGCTA | 0.0708 |
| CAGCGCGG | 0.0805 |
| ACCCAGAA | 0.0721 |
| CGCTAAGC | 0.0686 |
